Measured values taken from the BET-seq Pho4 binding data (Le et al. 2018).
The list shows a part of the results. The energies were worked out here from pooled read counts, against the library average; single values are noisy.

Target: T1, Pho4 (S. cerevisiae) (UniProt P07270)
T1 sequence: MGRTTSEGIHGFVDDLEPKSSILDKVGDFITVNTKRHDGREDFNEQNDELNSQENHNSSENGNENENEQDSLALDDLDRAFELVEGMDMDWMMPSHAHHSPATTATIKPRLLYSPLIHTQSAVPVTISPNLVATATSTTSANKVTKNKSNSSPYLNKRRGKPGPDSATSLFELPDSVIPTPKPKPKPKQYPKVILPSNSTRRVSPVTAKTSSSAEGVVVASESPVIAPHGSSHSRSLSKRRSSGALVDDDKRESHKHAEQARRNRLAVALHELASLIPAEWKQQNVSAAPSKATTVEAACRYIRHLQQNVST
Assay: relative binding free energy (BET-seq); higher = weaker binding
Settings: reference: library average

Sequence	relative binding free energy
GGAGGCACGTGCGAGT	-0.06 kcal/mol
TTAAGCACGTGGAGCA	-0.09 kcal/mol
GGGTGCACGTGGTGTG	0.06 kcal/mol
GAGGGCACGTGAGAAG	0.26 kcal/mol
TACGTCACGTGTTTTT	0.15 kcal/mol
TTTGTCACGTGTCCAT	0.12 kcal/mol
ATTGTCACGTGGGATC	0.01 kcal/mol
TTTTACACGTGTAAAG	0.19 kcal/mol
GAGATCACGTGATGAG	0.5 kcal/mol
TGGAGCACGTGGGGCC	-0.2 kcal/mol
TTTGACACGTGGTAGT	0.01 kcal/mol
ATGGGCACGTGTTTTT	-0.12 kcal/mol
GGGAGCACGTGTTAAT	0.06 kcal/mol
TAGTTCACGTGAGGTG	0.36 kcal/mol
TGGGACACGTGGCAAT	-0.04 kcal/mol
GGGCGCACGTGCCGGG	-0.32 kcal/mol
AGCGGCACGTGAGTGT	0.09 kcal/mol
TGGGGCACGTGGGATC	-0.12 kcal/mol
AATGTCACGTGAGATG	0.37 kcal/mol
AGAGACACGTGTGTAT	0.1 kcal/mol
GTGGGCACGTGTGACA	-0.07 kcal/mol
AATATCACGTGGGTAT	-0.15 kcal/mol
AAGTTCACGTGTGCGT	0.17 kcal/mol

Sequence	relative binding free energy
ATTTGCACGTGTCATA	-0.12 kcal/mol
GTAGGCACGTGTTCGT	-0.12 kcal/mol
CAGTTCACGTGGGGTT	0.26 kcal/mol
ATATTCACGTGTGACA	0.38 kcal/mol
TTTATCACGTGTACGA	0.21 kcal/mol
TTGGGCACGTGTTTAC	-0.08 kcal/mol
TGATACACGTGGGTAT	-0.06 kcal/mol
CATGTCACGTGAGTGG	0.17 kcal/mol
TATGGCACGTGTTTGG	-0.01 kcal/mol
TTTTACACGTGATAGG	0.14 kcal/mol
ATTTTCACGTGTGCGA	0.11 kcal/mol
ATAATCACGTGTTTGA	-0.02 kcal/mol
TTATACACGTGAGATG	0.36 kcal/mol
GTTATCACGTGACGGG	0.21 kcal/mol
GAGGTCACGTGAGGCA	0.48 kcal/mol
TATAACACGTGATGAT	0.17 kcal/mol
GGAAGCACGTGAAGGT	0.13 kcal/mol
TATAGCACGTGTAGAT	0.03 kcal/mol
GGTGTCACGTGCGCAG	-0.07 kcal/mol
TATTACACGTGGGTTC	0.05 kcal/mol
GTGCGCACGTGTGCGT	-0.06 kcal/mol
CAGCTCACGTGAGGTG	0.32 kcal/mol
TGGTACACGTGGTGCA	-0.09 kcal/mol

Sequence	relative binding free energy
ATTGTCACGTGTGCGT	0.09 kcal/mol
GGTGTCACGTGGGCAA	-0.09 kcal/mol
AATATCACGTGGAGGT	0.07 kcal/mol
TGATTCACGTGAGAGT	0.32 kcal/mol
TCGAGCACGTGGTGGT	-0.25 kcal/mol
CATTACACGTGTTTGT	-0.02 kcal/mol
AACGGCACGTGTAAGG	-0.03 kcal/mol
GTGTGCACGTGGGGAC	0.02 kcal/mol
TCGTACACGTGTGTAA	0.3 kcal/mol
TCGGCCACGTGCGGGG	-0.05 kcal/mol
CGGCGCACGTGCGGGT	-0.2 kcal/mol
GGTACCACGTGTTTTT	0.07 kcal/mol
CTTTGCACGTGCTGTA	-0.08 kcal/mol
GAGGGCACGTGTGGAC	0.09 kcal/mol
TTAGGCACGTGTAAGC	-0.01 kcal/mol
TTGAGCACGTGGCTGA	-0.18 kcal/mol
GGCGGCACGTGGCGGT	-0.07 kcal/mol
GTGTTCACGTGAAGTT	0.49 kcal/mol
TTGTACACGTGGATCT	0.15 kcal/mol
ATGAGCACGTGGGCGA	-0.21 kcal/mol
CTCAGCACGTGGGGTG	-0.07 kcal/mol
GAGGTCACGTGTTTAG	0.34 kcal/mol
GCGTGCACGTGTGTGC	0.06 kcal/mol

Sequence	relative binding free energy
TTGCGCACGTGGCTTT	-0.25 kcal/mol
TTGTTCACGTGTGCCG	0.28 kcal/mol
CGTAACACGTGGGTGA	-0.13 kcal/mol
GCGGTCACGTGCGGTT	0.22 kcal/mol
GGGAACACGTGTGGGG	0.06 kcal/mol
GTAATCACGTGATATT	0.35 kcal/mol
AGTATCACGTGTTACT	0.14 kcal/mol
GGATTCACGTGGTTTC	0.32 kcal/mol
TGATTCACGTGTCGAG	0.22 kcal/mol
AAGTGCACGTGGCGTT	-0.07 kcal/mol
AGTGGCACGTGTCGGG	-0.16 kcal/mol
GAGGGCACGTGGCGAT	-0.2 kcal/mol
AGAAGCACGTGTGGTT	0.03 kcal/mol
TTGAGCACGTGATAGC	0.02 kcal/mol
CGGTACACGTGGCGCG	0.12 kcal/mol
CTTTTCACGTGTGCGG	0.27 kcal/mol
TAGTCCACGTGTGGGA	-0.02 kcal/mol
TTTGCCACGTGGTGAT	-0.23 kcal/mol
TTTCGCACGTGCGGGG	-0.04 kcal/mol
AGTGTCACGTGATTAT	0.05 kcal/mol
TGGATCACGTGTTCGT	0.03 kcal/mol
AAGGTCACGTGCTGGT	0.17 kcal/mol
TTGTTCACGTGAGAAA	0.43 kcal/mol

Sequence	relative binding free energy
TCTGCCACGTGTGGGT	-0.02 kcal/mol
AGGTTCACGTGGTCTT	0.17 kcal/mol
TGATGCACGTGAAGTT	0.3 kcal/mol
TTTGACACGTGTTCGA	0.07 kcal/mol
GGAAGCACGTGATGTG	0.01 kcal/mol
GAATTCACGTGGGGTG	0.22 kcal/mol
GGTCTCACGTGTGATT	0.25 kcal/mol
GGTAACACGTGGTTGG	0.03 kcal/mol
TATGTCACGTGAATGA	0.21 kcal/mol
GAACTCACGTGAGGGG	0.55 kcal/mol
CGTATCACGTGTCGTT	0 kcal/mol
AGGCACACGTGGGGGG	-0.08 kcal/mol
TTTATCACGTGGTAGG	0.11 kcal/mol
TTCATCACGTGCATGT	0.18 kcal/mol
ATATTCACGTGGAGCT	0.15 kcal/mol
GGTGTCACGTGATACG	0.11 kcal/mol
GGGAACACGTGGTGTA	-0.03 kcal/mol
GTGGGCACGTGGAGTC	0.05 kcal/mol
TGATTCACGTGTGTGC	0.21 kcal/mol
TGTTACACGTGTAGTA	0.12 kcal/mol
TAGAGCACGTGTGTAA	-0.17 kcal/mol
TGACTCACGTGTATGG	0.17 kcal/mol
GAAGGCACGTGTGGGA	-0.04 kcal/mol
